This note sets out measurements from ChEMBL document CHEMBL4888484, “Replenishing the malaria drug discovery pipeline: Screening and hit evaluation of the MMV Hit Generation Library 1 (HGL1) against asexual blood stage Plasmodium falciparum ,using a nano luciferase reporter read-out” (2022).

Structures are written as SMILES. Screen size: about 150,000 compounds; about 540 (0.36%) showed an effect of 50% or more. Some of the results follow.

For this assay, the system named is Plasmodium falciparum. As to the kind of experiment: Primary screen in NF54 nanoGlo assay, in single point, at 2uM, 72h; a lower Z score goes with more inhibition. The class given is functional, Erythrocyte. As to conditions: timepoint 72 hour.
For `CCc1cnc(NC(=O)N2CCC[C@@H]2CO)s1`, the % Inhibition – broadly, the drop in the measured response relative to a control, in per cent – was -7% and the Z score was 1.32.

Turning to `CC1CCCCC1NC(=O)c1cccc(-n2cnnn2)c1` (stereo unspecified), the “% Inhibition” value is on record as -2% and the Z score amounted to 0.21.

Regarding `CC(C)NC(=O)N(Cc1ccccc1)C[C@H]1CC(c2ccc(N(C)C)cc2)=NO1`, the “% Inhibition” value is recorded as -7% and the Z score is 1.18.

Consider `CS(=O)(=O)CCC(=O)NC1(c2ccccc2)CCCC1`, for which the “% Inhibition” value is listed as 9% and the Z score is -1.29.

As for `Cc1nc(C(=O)N2CCC[C@H]3CN(C(=O)OC(C)(C)C)C[C@H]32)c(C)o1`, the “% Inhibition” value is -9% and the Z score was determined as 1.54.

For `O=C(CNC(=O)C1CCCCC1)NC1CCCCC1`, the “% Inhibition” value is -9% and the Z score is given as 1.42.

Take `N#CCC(=O)Nc1ccc(OC(F)(F)F)c(Cl)c1`: the “% Inhibition” value was -12% and the Z score is on record as 1.8.

Take `O=C(C1=CCN(Cc2ccccc2F)CC1)N1CCN(c2ccccc2F)CC1`: the “% Inhibition” value is reported as -12% and the Z score worked out at 1.58.

For the compound `O=S(=O)(C[C@H]1CCC1(F)F)N1CCCO1`, the “% Inhibition” value was -2% and the Z score is 0.14.

Regarding `C[C@@H](C1CC1)N(CC(=O)Nc1ccc(F)cc1F)C1CC1`, the “% Inhibition” value is recorded as -12% and the Z score stood at 1.76.

In the case of `Cc1ccc(C)c(NC(=O)N2CCC(N3CCN(Cc4ccccc4)C(=O)C3=O)CC2)c1`, the “% Inhibition” value is -16% and the Z score was 1.5.

As to `Cc1cc(=O)n(CC(=O)N(C)c2cccc(Cl)c2)c(Nc2ccc(F)c(C)c2)n1`, the “% Inhibition” value is -10% and the Z score came to 1.28.

For `Fc1ccccc1-c1noc(C2CN(C3CCOCC3)C2)n1`, the “% Inhibition” value came to 29% and the Z score is given as -3.33.

Turning to `COCCN1C(=O)[C@@H]2CC[C@H]1CN(c1nc(N(C)C)nc(C)c1C)C2`, the “% Inhibition” value was -8% and the Z score is 1.5.

With `CC1(C)Cc2cccc(N3C(=O)N[C@@H](CCF)C3=O)c2O1`, the “% Inhibition” value was -9% and the Z score came to 0.95.

In the case of `C=CCC[C@@H](CN1CCCC1)Oc1ccc(C(=O)NCC)cn1`, the “% Inhibition” value is 2% and the Z score is recorded as -0.28.

For `COc1ccc(CNC(=O)C[C@H]2CCCCN(Cc3ccccc3)C2=O)cc1`, the “% Inhibition” value is on record as -8% and the Z score is recorded as 1.62.

In the case of `Cc1nc2c(c(NCc3cc(-c4ccccc4F)no3)n1)CCNCC2`, the “% Inhibition” value is -9% and the Z score is on record as 1.76.

Take `Cc1ccncc1C(=O)N1CCC(CCn2c(C)cnc2C2CC2)CC1`: the “% Inhibition” value is -3% and the Z score is listed as 0.37.

`COc1ccccc1C1(CNC(=O)COc2ccc(Cl)cc2)CCOCC1`: the “% Inhibition” value was -35% and the Z score is on record as 4.51.

For `Cn1nccc1-c1ccccc1CN1CC(O)(C(F)F)C1`, the “% Inhibition” value is reported as -4% and the Z score was found to be 0.55.

As for `CCCN1CC2(CCN(C(=O)Cc3ccc(O)cc3)CC2)C[C@H]1C(=O)O`, the “% Inhibition” value is -13% and the Z score is 1.71.

Turning to `COC[C@]1(C(=O)Nc2ccc3c(c2)CCCN3C(C)=O)CCN(C(=O)OC(C)(C)C)C1`, the “% Inhibition” value is on record as -2% and the Z score worked out at 0.33.

In the case of `Cc1n[nH]cc1CN(C)C(=O)c1ccc(C#N)nc1`, the “% Inhibition” value is given as -8% and the Z score came to 0.92.

For `CC(C)N(CC(N)=O)C[C@@]1(C)CC1(Cl)Cl`, the “% Inhibition” value is given as -13% and the Z score was 2.1.

Take `Clc1cccc(-c2nc(-c3cccc4ccccc34)[nH]c2-c2ccccc2)c1Cl`: the “% Inhibition” value stood at 3% and the Z score is reported as -0.41.

For the compound `CC(C)O[C@H]1CN(c2ncnc3c2Cc2ccccc2OC3)C[C@@H]1O`, the “% Inhibition” value is -8% and the Z score was 1.14.

Take `CC(=O)c1cc(C(=O)N(CC2CC2)CC(F)(F)F)ccc1C`: the “% Inhibition” value was found to be 4% and the Z score is -0.6.

As for `Cc1cnc(-n2ncc(C(=O)N3CCN(C(C)C)CC3)c2C(C)C)nc1-c1ccc(F)cc1`, the “% Inhibition” value is -3% and the Z score is 0.64.

Regarding `CCc1c(C)nc(C)nc1N1CCC2(CCC(=O)N(Cc3cccnc3)C2)CC1`, the “% Inhibition” value is listed as -10% and the Z score is given as 1.24.

Take `CNC(=O)[C@@H]1CN(C(=O)c2cc(-c3cc(C)ccc3C)n[nH]2)C[C@H]1CO`: the “% Inhibition” value was -4% and the Z score was 0.54.

Regarding `CNS(=O)(=O)Nc1ccc(NS(=O)(=O)c2ccsc2)cc1`, the “% Inhibition” value is reported as 1% and the Z score was -0.13.

In the case of `CCC=C(C)C(=O)N1CC(C)OC(C)C1` (stereo unspecified), the “% Inhibition” value is recorded as -5% and the Z score is 0.5.

Take `CCOc1ccc(N2C[C@@H](C(=O)N3CCN(c4ccccn4)CC3)CC2=O)cc1`: the “% Inhibition” value is -5% and the Z score is given as 0.69.

As for `Cc1cnc(CNc2cccc(F)c2)nc1`, the “% Inhibition” value is recorded as 0% and the Z score was found to be 0.

As for `O=S(=O)(NCC#CCN1CCc2ccccc2C1)c1cccnc1`, the “% Inhibition” value is on record as 11% and the Z score was -1.22.

Consider `Cc1cc(-c2cc3c(c(OCC4(C)COC4)c2)OCCNC3)nc2cc(F)ccc12`, for which the “% Inhibition” value is -4% and the Z score was found to be 0.77.

Turning to `O=C1CCNC(=O)N1CCOc1ccc(F)cc1`, the “% Inhibition” value turned out to be 4% and the Z score is reported as -0.41.

In the case of `CC(C)c1noc([C@H](C)n2ccnc2-c2ccnc3ccccc23)n1`, the “% Inhibition” value was -20% and the Z score is reported as 2.48.

In the case of `CC12CCC(C(=O)Nc3ccncc3)(CC1O)C2(C)C` (stereo unspecified), the “% Inhibition” value was -6% and the Z score was determined as 0.77.

For `O=C(NCC(F)(F)F)Nc1ccncc1`, the “% Inhibition” value is given as -15% and the Z score was 2.08.

Take `CCOC(=O)c1c(C)[nH]c(C)c1-c1csc(NCCOC)n1`: the “% Inhibition” value was determined as 17% and the Z score is listed as -2.69.

`Cc1c(NC(=O)COC2CCCCC2)c(=O)n(-c2ccccc2)n1C`: the “% Inhibition” value is on record as -11% and the Z score is 1.77.
